Assay results taken from the supplement of paper PMC3334620.
Over roughly 33,000 sequences, “E-score (-0.5 to 0.5)” has its median near -0.054; the highest 2% begin near 0.35. The list shows a part of the results.

target: T1, Stb5 (UniProt P38699); assay: PBM E-score (8-mer binding enrichment) (E-score (-0.5 to 0.5)); higher = stronger / more preferred TF binding; most listed sequences are background and not binding sites; conditions: protein concentration: 200 nM; construct: GST-full length
T1 sequence: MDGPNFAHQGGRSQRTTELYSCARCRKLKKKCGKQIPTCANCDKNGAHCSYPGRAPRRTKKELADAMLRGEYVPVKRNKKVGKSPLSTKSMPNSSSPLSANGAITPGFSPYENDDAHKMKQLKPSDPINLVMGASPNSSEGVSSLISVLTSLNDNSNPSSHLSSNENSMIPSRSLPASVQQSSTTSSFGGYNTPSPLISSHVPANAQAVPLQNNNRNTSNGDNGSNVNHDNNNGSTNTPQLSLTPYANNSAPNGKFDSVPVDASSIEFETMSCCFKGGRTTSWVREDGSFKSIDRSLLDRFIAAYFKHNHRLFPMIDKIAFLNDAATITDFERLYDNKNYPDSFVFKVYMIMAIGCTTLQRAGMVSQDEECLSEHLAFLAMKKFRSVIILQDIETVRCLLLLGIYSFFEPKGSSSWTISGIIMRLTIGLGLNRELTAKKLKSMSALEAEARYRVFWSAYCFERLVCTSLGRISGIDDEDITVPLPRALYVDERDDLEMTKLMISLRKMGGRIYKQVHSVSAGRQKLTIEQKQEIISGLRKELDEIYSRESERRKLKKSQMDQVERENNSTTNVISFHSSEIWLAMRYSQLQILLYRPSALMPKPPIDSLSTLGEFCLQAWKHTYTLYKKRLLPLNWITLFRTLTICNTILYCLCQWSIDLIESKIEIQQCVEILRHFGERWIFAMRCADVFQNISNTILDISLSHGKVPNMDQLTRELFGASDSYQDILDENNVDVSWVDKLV
Summary of the method: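 GST-tagged yeast TFs (full-length or DNA-binding domain) were made by PURExpress in vitro transcription/translation and applied at about 100-200 nM to universal all-10-mer Agilent arrays. The arrays were made double-stranded by primer extension, on fresh or once-stripped slides. Bound protein was detected with fluorescent anti-GST, and scans were normalised with masliner. Each ungapped eight-base word, pooled with its reverse complement, received an E-score (modified Wilcoxon-Mann-Whitney statistic) from the Universal PBM Analysis Suite.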

Row | Sequence | PBM E-score
1 | CCCCCGCC | 0.313
2 | GACACAGC | 0.0922
3 | AGAGTTAT | -0.115
4 | GACGAGTA | -0.072
5 | TAGGGCGA | -0.281
6 | CAAGTCTA | -0.192
7 | TAATGAGA | -0.201
8 | CCTGGTCC | -0.127
9 | CCCTCCGA | 0.0129
10 | AATCTGAC | -0.1
11 | AGTGATTA | 0.064
12 | CATACTTA | -0.2
13 | GGCTCTCA | -0.102
14 | ATAGAAAT | 0.00501
15 | CGACTATC | -0.0126
16 | ATCCCCAA | -0.183
17 | GAGCACGC | -0.214
18 | AAAGTCGA | -0.226
19 | ACCGTCTA | 0.247
20 | AACACGCT | -0.114
21 | AATCATAC | -0.069
22 | CTGTGTCC | 0.136
23 | ACTCTAGC | -0.126
24 | CTTTTCTC | -0.106
25 | ACTCGGTA | -0.00538

Row | Sequence | PBM E-score
26 | AAGATCAG | -0.182
27 | TAGCCCTA | -0.173
28 | CCTATTCG | -0.00606
29 | CGCGCAGC | 0.149
30 | CTCTGATA | 0.103
31 | CTGGTTGC | 0.0322
32 | GAATTAAC | -0.0887
33 | CAGTAGAC | -0.104
34 | GGTGGTTA | 0.193
35 | AACACAGA | -0.21
36 | CACGGCGC | 0.246
37 | ACGGCTAT | 0.134
38 | GGGCTCGA | 0.0293
39 | AAAATTGG | -0.156
40 | CCGTTGTC | 0.262
41 | GCCGGAAA | 0.187
42 | CTAAGGAG | -0.33
43 | CCCGTATC | 0.0175
44 | TAGTCACA | -0.242
45 | GGTTGCAC | -0.0543
46 | GAGCCTCA | -0.19
47 | GAATCTAA | 0.00348
48 | CATCCTAC | -0.127
49 | AGCCACTG | -0.19
50 | AAAGGAAT | -0.0321

Row | Sequence | PBM E-score
51 | AGCTGGCC | -0.158
52 | GCGATTTA | -0.0536
53 | GATAGGGC | -0.229
54 | CCCCCGAA | 0.213
55 | GGCACGGA | 0.0996
56 | CTCTTGTA | -0.145
57 | CCTCTCTA | -0.101
58 | GGGTACAC | -0.00181
59 | AAAACCAC | 0.125
60 | GCGCGTGA | -0.0851
61 | GACGCTTA | -0.193
62 | ACACTAGG | -0.105
63 | CTCCATAC | -0.0338
64 | GAAGCTCC | 0.233
65 | CATACAGC | 0.00537
66 | CCCAAGCA | -0.194
67 | GCTCCAGC | -0.00568
68 | GGGAGCAA | -0.0856
69 | GCCACGGC | 0.262
70 | AGTCGTAA | -0.0723
71 | CACGCGGC | 0.0687
72 | CTCTGTTC | -0.239
73 | CTAGAAAA | 0.0223
74 | CGATGGGC | -0.00924
75 | ATGAGCTC | -0.262

Row | Sequence | PBM E-score
76 | CAATACTC | -0.11
77 | AAGGACAC | -0.165
78 | ACTGTCGC | -0.0587
79 | GGTAAAAA | 0.228
80 | TATCCAAA | -0.241
81 | TCTGATAA | -0.199
82 | GCTAAAGA | 0.136
83 | GTCCTTTA | 0.0817
84 | CGCGCCAG | 0.256
85 | ACCTCGTC | -0.0783
86 | GGCGGGAC | 0.28
87 | GATTCCAC | -0.0439
88 | AGGACCAC | -0.182
89 | ACGTAGAT | -0.246
90 | CACAAAGA | -0.138
91 | GGCTTCGA | 0.0803
92 | GGTGGAAA | 0.0706
93 | GTGCCTCA | -0.0942
94 | GGATAATA | 0.197
95 | GTCGCAAC | 0.0168
96 | CTAACATA | -0.0708
97 | AAAGATTC | -0.226
98 | AAGGTGAC | -0.158
99 | AACATGGG | 0.0505
100 | GGCATAAC | 0.0221

Row | Sequence | PBM E-score
101 | CTGTCGGA | 0.349
102 | ACACGTGG | -0.177
103 | AGATGCTA | -0.107
104 | ATGACAGG | -0.102
105 | AAATGCAT | -0.0958
106 | ACAAGTCA | -0.151
107 | TCCAGCCA | -0.187
108 | ACCCTTGG | -0.207
109 | CCAATCGC | -0.15
110 | AGCAAGGC | -0.0791
111 | TACAGTGA | -0.344
112 | TGCAGGCA | -0.157
113 | AACTTGCT | -0.123
114 | TATTCCGA | 0.17
115 | ATTACGTC | -0.0364
116 | CGCATAAC | 0.0483
117 | TACTGCAA | -0.235
118 | ACCTGGAG | -0.133
119 | GCTCGACA | -0.197
120 | CAGGCCTC | -0.279
121 | GACTTCCC | -0.02
122 | CGAAACAC | -0.0151
123 | AACAAGGC | -0.23
124 | CACGATTC | 0.0632
125 | GCTTAACC | -0.268

Row | Sequence | PBM E-score
126 | AACCACTA | -0.0604
127 | GAGTAAGA | -0.0203
128 | GGACGGGA | 0.1
129 | AATATGAT | -0.0357
130 | AGTGACGC | -0.0527
131 | GTTCCTGA | -0.302
132 | CGCTTTTA | 0.19
133 | ATCACGGC | 0.162
134 | AGTGCAGC | -0.191
135 | ACGATCGA | -0.151
136 | CTAGAGGC | -0.262
137 | CCGTCTCG | 0.155
138 | GTGCCGGA | 0.305
139 | AATTGCCA | -0.27
140 | CCATAGCG | -0.00058
141 | ATTGTCCG | 0.372
142 | CGCATCGA | 0.022
143 | AACACCTC | 0.0132
144 | AGCCAGCT | -0.157
145 | TATCACCA | 0.161
146 | GGTACAAA | 0.202
147 | CTCGATGA | -0.154
148 | CATTGCAA | -0.0709
149 | TAAAGCAA | -0.0115
150 | CTCGCCCA | -0.267

Row | Sequence | PBM E-score
151 | AGGACGAA | -0.0407
152 | AATGCCGT | 0.425
153 | CGCAGTAG | -0.0728
154 | CATGAGCC | -0.087
155 | ATTGGGGA | -0.0271
156 | AATCACTA | -0.155
157 | TGCAGCCA | -0.187
158 | CTAGTGAC | -0.186
159 | AGCCTTCA | -0.0978
160 | CGCCAAAC | -0.0389
161 | GAACCTAA | 0.0325
162 | GGAGGGAA | -0.0657
163 | CAGACAGG | -0.0478
164 | AGATTGGA | -0.111
165 | CCTATACC | 0.0759
166 | GGCGATCA | -0.00285
167 | GAAGATGC | -0.17
168 | ACGCGGTG | 0.35
169 | AATACAAA | -0.0524
170 | AAGGGCTG | -0.26
171 | CCGATATC | 0.228
172 | TACGGACA | 0.235
173 | AGAATGTC | -0.276
174 | ATCTTGTA | -0.143
175 | ACACAATA | -0.107

Row | Sequence | PBM E-score
176 | TAAGCCAA | -0.123
177 | TACACGCA | -0.241
178 | GACAGTGA | -0.148
179 | AACTGCTA | -0.137
180 | GAAAGCGA | -0.205
181 | ACATCCAT | -0.135
182 | GATCTAGA | -0.154
183 | AACTAAGA | -0.0165
184 | AGCCTCTG | -0.142
185 | CCCAAAGA | -0.0823
186 | CAGGTGTC | -0.0436
187 | GGAGCGAA | 0.0449
188 | ATGGCATC | -0.22
189 | AGATTTCA | -0.0811
190 | ATCTATTC | -0.0118
191 | GTATTTGA | 0.0316
192 | TATTAAGA | 0.0543
193 | CGTCGCAC | 0.0747
194 | ACGGGATG | -0.00598
195 | CCTGTTCC | -0.0917
196 | GGGTCACA | -0.0106
197 | GGGCAGTA | -0.0652
198 | CGGTACGC | 0.133
199 | GAGAACAC | -0.107
200 | CGCCATAA | 0.0677

Row | Sequence | PBM E-score
201 | GAACCACA | -0.0522
202 | TCGAAGCA | -0.208
203 | ATAAGTCC | 0.443
204 | ACCCAGAT | -0.218
205 | CGGACGTC | 0.0917
206 | GACGTGAC | -0.151
207 | AGAGCGAG | -0.184
208 | CCTACGCC | 0.00444
209 | GTAGACGA | -0.282
210 | ACACACCA | -0.218
211 | ATCACGCC | 0.0472
212 | ACATAGGT | -0.133
213 | GCATCATA | -0.0391
214 | GACCAACA | -0.133
215 | ATAGAAGA | -0.05
216 | TCATAGAA | -0.0493
217 | GACGATAC | 0.017
218 | AGAGCCCC | 0.0155
219 | CCACATAC | -0.025
